# According to PubChem BioAssay AID588453 (National Center for Advancing Translational Sciences (NCATS), 2011):
# Hit rate of the full screen: of about 390,000 compounds, about 4,000 (1%) were called active. The shares of active, inactive and inconclusive entries below differ from those in the screen. Calls come from the whole dose curve; as a rule, active = well fitted inhibition curve with a large enough effect; inconclusive = small, poorly fitted or top-dose-only effect; inactive = no such curve, though single readings can be large or run the other way. Potencies beside an inconclusive call are fits to weak or partial responses and may not hold up.
# Target: Thioredoxin reductase 1, cytoplasmic (Rattus norvegicus) (UniProt O89049)
# Sequence of UniProt O89049 (O89049 whole entry, looked up): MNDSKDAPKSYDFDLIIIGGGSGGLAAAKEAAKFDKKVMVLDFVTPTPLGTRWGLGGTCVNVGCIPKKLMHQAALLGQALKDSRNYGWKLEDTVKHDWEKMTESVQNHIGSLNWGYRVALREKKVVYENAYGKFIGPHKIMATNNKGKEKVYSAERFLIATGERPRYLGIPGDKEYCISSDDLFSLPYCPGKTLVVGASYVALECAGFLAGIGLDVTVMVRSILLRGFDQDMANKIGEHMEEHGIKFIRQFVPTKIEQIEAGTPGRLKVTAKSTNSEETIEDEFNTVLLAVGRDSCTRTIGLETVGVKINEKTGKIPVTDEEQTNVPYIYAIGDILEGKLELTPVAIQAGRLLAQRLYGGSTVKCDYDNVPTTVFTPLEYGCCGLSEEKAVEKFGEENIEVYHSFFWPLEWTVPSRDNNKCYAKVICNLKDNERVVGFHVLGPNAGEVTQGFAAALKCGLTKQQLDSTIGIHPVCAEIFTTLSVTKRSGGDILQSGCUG
# Assay: qHTS Assay for Inhibitors of Mammalian Selenoprotein Thioredoxin Reductase 1 (TrxR1): qHTS; note: nearly all actives have a fitted effect of over 65% in size
# Conditions: recombinant rTrxR1, NADPH fluorescence consumption, selenite substrate; series mostly up to 114 µM
# Summary of the method: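 Rat TrxR1 (90 nM in the dispensed reagent) was pre-reduced with 400 uM NADPH for 5 min at room temperature, then incubated with compound for 15 min. After 400 uM selenite was added, NADPH fluorescence (Ex 340/Em 450 nm) was followed for 8 min.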
# Potency is the fitted concentration of half-maximal effect; tags give direction and shape of the fitted curve.
row,SMILES,Potency
1,Cc1ccc(NC(=S)NC(=O)/C=C/c2ccco2)c(O)c1,"inconclusive: 56.2 µM [inhibitor, partial curve, poor fit]"
2,Cc1ccc(CNC(=O)Cn2c(=O)oc3ccccc32)o1,"inconclusive: 22.4 µM [inhibitor, partial curve, poor fit]"
3,NC(=O)NC1CCCc2c1[nH]c1ccc(Cl)cc21 (centres undefined),"inconclusive: 79.4 µM [inhibitor, single point]"
4,COc1ccc(C(=O)CSc2nnc(-c3cc4ccccc4cc3O)n2Cc2ccco2)cc1,"inconclusive: 50.1 µM [inhibitor, partial curve, poor fit]"
5,O=C(CCBr)Nc1cccc2cccnc12,"inconclusive: 22.4 µM [inhibitor, full curve, poor fit]"
6,COc1ccc2c(c1)N(C)/C(=C/c1cccc[n+]1C)S2,inactive
7,COC(=O)CCn1nnc(-c2cccs2)n1,inactive
8,CSCc1ccc(C(=O)NC2CC(C)(C)Cc3c2cnn3-c2ccc(F)cc2)o1 (centres undefined),"inconclusive: 70.8 µM [inhibitor, partial curve, poor fit]"
9,CCOC(=O)C1=C[C@]2(CC)CCCN3CCc4c(n1c1ccccc41)[C@@H]32,"inconclusive: 6.31 µM [inhibitor, full curve, poor fit]"
10,Cc1cc(C)c(S(=O)(=O)N2CCN(Cc3ccc4c(c3)OCO4)CC2)cc1C,inactive
11,COc1ccc(-c2cc(C(=O)Nc3cc(OC)c(OC)c(OC)c3)no2)cc1OC,"inconclusive: 28.2 µM [inhibitor, single point]"
12,Cc1[nH]n(-c2ncc(-c3ccccc3)s2)c(=O)c1C(c1ccc(Br)cc1)C(C#N)C#N (centres undefined),active: 31.6 µM
13,COc1ccc(CNC(=O)C2CCCN(S(=O)(=O)c3c(C)n[nH]c3C)C2)cc1 (centres undefined),"inconclusive: 22.4 µM [inhibitor, single point]"
14,CCN1CCN(c2cc(C)c3cc(NC(=S)NCCCN4CCc5ccccc5C4)ccc3n2)CC1,"inconclusive: 39.8 µM [inhibitor, full curve, poor fit]"
15,CCC1=NN2C(=N)/C(=C/c3c(C)nn(-c4ccccc4)c3Cl)C(=O)N=C2S1,"inconclusive: 56.2 µM [inhibitor, partial curve, poor fit]"
16,O=C(NP(=O)(N1CCOCC1)N1CCOCC1)C1=C(N2CCOCC2)/C(=C\c2ccccc2)CC1,active: 14.1 µM
17,O=C(CSc1ccc2nnc(-c3ccccn3)n2n1)NCc1ccco1,active: 44.7 µM
18,COc1cccc(-c2nc(CS(=O)CC(=O)NC3CCCCC3)c(C)o2)c1 (centres undefined),"inconclusive: 22.4 µM [inhibitor, single point]"
19,CCOC(=O)N/N=C/c1cn(CCCOc2ccc(C)cc2)c2ccccc12,inactive
20,Cc1ccc(NC(=O)c2c(NC(=O)c3ccccc3Cl)sc3c2CCC3)cc1,"inconclusive: 31.6 µM [inhibitor, partial curve]"
21,O=C(NCc1cccs1)c1cccnc1SCCS(=O)(=O)c1ccc(C(F)(F)F)cn1,"inconclusive: 79.4 µM [inhibitor, partial curve]"
22,N/C(=N\OC(=O)c1cccs1)c1ccc(Cl)cc1,inactive

row,SMILES,Potency
1,O=C(CCN1C(=O)/C(=C/c2cccs2)SC1=S)Nc1ccccn1,"inconclusive: 79.4 µM [inhibitor, partial curve]"
2,C=C1c2cccc(OC)c2O[C@H](C(=O)OCC)[C@@H]1CCCCCC,"inconclusive: 17.8 µM [inhibitor, full curve]"
3,CN(C)S(=O)(=O)c1cccc(NC(=O)CCNC(=O)Nc2ccccc2)c1,"inconclusive: 89.1 µM [inhibitor, single point]"
4,CC(C)Oc1ccc(C(=O)CCN2CCCCC2)cc1,"inconclusive: 0.708 µM [inhibitor, full curve, poor fit]"
5,Cn1nc(C(=O)Nc2sccc2C(N)=O)ccc1=O,"inconclusive: 22.4 µM [inhibitor, partial curve]"
6,COC(=O)C1=C(C)N(C)C(=O)NC1c1ccc([N+](=O)[O-])o1 (centres undefined),"inconclusive: 31.6 µM [inhibitor, partial curve, poor fit]"
7,N#Cc1cc2cc3c(cc2nc1N1CCCCC1)OCCO3,"inconclusive: 20 µM [inhibitor, single point]"
8,Cc1ccc(C(C[N+](=O)[O-])c2c(C)cc3ccccn23)cc1 (centres undefined),"inconclusive: 70.8 µM [inhibitor, single point]"
9,Cc1nn(C(=O)c2cccc(F)c2)c(C)c1S(=O)(=O)N1CCOCC1,"inconclusive: 28.2 µM [inhibitor, single point]"
10,CC(=O)OCC(=O)[C@@]1(O)CC[C@H]2[C@@H]3C[C@H](C)C4=CC(=O)C=C[C@]4(C)[C@H]3[C@@H](O)C[C@@]21C,inactive
11,COc1ccccc1/C=C/C=C1\Oc2c(ccc(O)c2CN(C)C)C1=O,"inconclusive: 79.4 µM [inhibitor, single point]"
12,COc1cc2c(cc1O)C(SC)=NC(C)(C)C2,"inconclusive: 35.5 µM [inhibitor, partial curve, poor fit]"
13,COc1ccc(S(=O)(=O)Cc2ccc(C(=O)NCc3cccnc3)o2)cc1,"inconclusive: 25.1 µM [inhibitor, partial curve, poor fit]"
14,COc1ccc(N(C(C)C(=O)NCc2ccco2)S(C)(=O)=O)cc1 (centres undefined),"inconclusive: 28.2 µM [inhibitor, full curve]"
15,Cc1c(Cl)c(-c2n[nH]c(=S)n2CC(C)C)nn1C,"inconclusive: 39.8 µM [inhibitor, partial curve, poor fit]"
16,C=CCNC(=S)Nc1c(C(=O)OC)[nH]c2cc(OC)ccc12,"inconclusive: 15.8 µM [inhibitor, full curve]"
17,COc1cccc(/C=c2/[nH]c(=O)/c(=C\c3cccc(OC)c3OC)[nH]c2=O)c1OC,inactive
18,Cc1ccc(NC(=O)CCN2C(=O)c3cccc4cccc(c34)C2=O)cc1,inactive
19,CCCOc1ccc(N2C(=O)CC(N(Cc3ccco3)C(=O)CC)C2=O)cc1 (centres undefined),"inconclusive: 50.1 µM [inhibitor, partial curve]"
20,CN1CCc2cc(Cl)c(O)cc2C(c2ccccc2)C1 (centres undefined),"inconclusive: 0.752 µM [inhibitor, full curve, poor fit]"
21,O=C(OCC(=O)N1CCN(C(=O)c2ccco2)CC1)c1ccccc1O,"inconclusive: 28.2 µM [inhibitor, single point]"
22,O=C(O)c1ccccc1NC(c1ccccc1)c1ccc2cccnc2c1O (centres undefined),"inconclusive: 0.224 µM [inhibitor, full curve, poor fit]"

row,SMILES,Potency
1,COCCCN(C(=O)c1cc(-c2ccco2)nc2ccccc12)c1c(N)n(Cc2ccccc2)c(=O)[nH]c1=O,"inconclusive: 79.4 µM [inhibitor, partial curve, poor fit]"
2,O=C(Oc1cccc2c(O)cccc12)c1ccco1,"inconclusive: 70.8 µM [inhibitor, single point]"
3,COc1cccc(NC(=O)c2oc3ccccc3c2NC(=O)c2ccc(C(F)(F)F)cc2)c1,"inconclusive: 70.8 µM [inhibitor, single point]"
4,CC(=O)Nc1ccc(S(=O)(=O)Nc2ccc3c(c2)CCC3)cc1,inactive
5,NS(=O)(=O)c1ccc(NC(=S)N2CCN(c3ccccc3Cl)CC2)cc1,inactive
6,Cc1c(CC(=O)O)c(=O)oc2cc(OCc3ccc(F)cc3F)ccc12,"inconclusive: 31.6 µM [inhibitor, single point]"
7,O=C(NNC(=S)NC(=O)c1ccc(F)cc1)c1ccncc1,"inconclusive: 39.8 µM [inhibitor, partial curve, poor fit]"
8,Cc1cccc(OCc2n[nH]c(=S)n2-c2ccccc2)c1,inactive
9,COc1ccc(C2=CC(=O)OC(C)(c3ccccc3)O2)cc1 (centres undefined),"inconclusive: 70.8 µM [inhibitor, partial curve]"
10,C[C@]12CC[C@@H]3c4ccc(O)cc4CC[C@H]3[C@@H]1CCC2=O,inactive
11,COc1cc(/C=N/NC(=O)CNC(=O)/C=C/c2ccco2)cc(OC)c1OC,"inconclusive: 20 µM [inhibitor, partial curve, poor fit]"
12,Cc1nn(Cc2c(Cl)cccc2Cl)c(C)c1C(=O)NCc1ccc(C)n1C,"inconclusive: 44.7 µM [inhibitor, partial curve]"
13,CC1=C(C(=O)Nc2ccc([N+](=O)[O-])cc2)C(c2cccc(C(F)(F)F)c2)NC(=S)N1c1ccccc1 (centres undefined),"inconclusive: 89.1 µM [inhibitor, single point]"
14,Cc1c(Cl)cccc1NC(=S)NCc1cccn1C,inactive
15,Cc1ccnc(SCC(=O)N2CCN(C(c3ccccc3)c3ccccc3)CC2)n1,"inconclusive: 70.8 µM [inhibitor, single point]"
16,Cc1c(CC(=O)NCC(=O)N[C@H](Cc2ccccc2)C(=O)O)c(=O)oc2cc(O)ccc12,active: 79.4 µM
17,CCOC(=O)c1ccc(NC(=O)c2c(NCc3cccs3)sc3c2CCCCC3)cc1,"inconclusive: 12.6 µM [inhibitor, partial curve]"
18,Nc1sc2c(c1C(=O)c1ccccc1)CCCC2,"inconclusive: 39.8 µM [inhibitor, partial curve]"
19,COC(=O)c1c(-c2cc(OC)c(OC)c(OC)c2)c2ccnc(OCc3ncccn3)c2c(=O)n1Cc1ccnc(C)c1,"inconclusive: 20 µM [inhibitor, partial curve, poor fit]"
20,CC(=O)C1=C(C)NC(SCC(=O)c2ccc(Cl)cc2Cl)=C(C#N)C1c1ccco1 (centres undefined),"inconclusive: 31.6 µM [inhibitor, single point]"
